Several values for one entry are separate records, joined by “and”; a condition that tells them apart may be missing. Equal values may be shown once. Hit rate of the full screen: of about 16,000 compounds, about 40 (0.2%) were called active. Roughly 1% stayed inconclusive and do not appear here. The call rests on the fitted dose curve; in most records, active means well fitted activation curve with a large enough effect; inconclusive means small, poorly fitted or top-dose-only effect, or another doubt; inactive means no such curve, though single readings can be large or run the other way. Some of the results follow. Residues, ends and D or L forms follow the SMILES beside them. *: point of attachment. X3 = NCCCC[C@@H](CN)N*
Target: Rap guanine nucleotide exchange factor 4 (Homo sapiens) (UniProt Q8WZA2)
UniProt Q8WZA2, sequence (Q8WZA2 whole entry, looked up): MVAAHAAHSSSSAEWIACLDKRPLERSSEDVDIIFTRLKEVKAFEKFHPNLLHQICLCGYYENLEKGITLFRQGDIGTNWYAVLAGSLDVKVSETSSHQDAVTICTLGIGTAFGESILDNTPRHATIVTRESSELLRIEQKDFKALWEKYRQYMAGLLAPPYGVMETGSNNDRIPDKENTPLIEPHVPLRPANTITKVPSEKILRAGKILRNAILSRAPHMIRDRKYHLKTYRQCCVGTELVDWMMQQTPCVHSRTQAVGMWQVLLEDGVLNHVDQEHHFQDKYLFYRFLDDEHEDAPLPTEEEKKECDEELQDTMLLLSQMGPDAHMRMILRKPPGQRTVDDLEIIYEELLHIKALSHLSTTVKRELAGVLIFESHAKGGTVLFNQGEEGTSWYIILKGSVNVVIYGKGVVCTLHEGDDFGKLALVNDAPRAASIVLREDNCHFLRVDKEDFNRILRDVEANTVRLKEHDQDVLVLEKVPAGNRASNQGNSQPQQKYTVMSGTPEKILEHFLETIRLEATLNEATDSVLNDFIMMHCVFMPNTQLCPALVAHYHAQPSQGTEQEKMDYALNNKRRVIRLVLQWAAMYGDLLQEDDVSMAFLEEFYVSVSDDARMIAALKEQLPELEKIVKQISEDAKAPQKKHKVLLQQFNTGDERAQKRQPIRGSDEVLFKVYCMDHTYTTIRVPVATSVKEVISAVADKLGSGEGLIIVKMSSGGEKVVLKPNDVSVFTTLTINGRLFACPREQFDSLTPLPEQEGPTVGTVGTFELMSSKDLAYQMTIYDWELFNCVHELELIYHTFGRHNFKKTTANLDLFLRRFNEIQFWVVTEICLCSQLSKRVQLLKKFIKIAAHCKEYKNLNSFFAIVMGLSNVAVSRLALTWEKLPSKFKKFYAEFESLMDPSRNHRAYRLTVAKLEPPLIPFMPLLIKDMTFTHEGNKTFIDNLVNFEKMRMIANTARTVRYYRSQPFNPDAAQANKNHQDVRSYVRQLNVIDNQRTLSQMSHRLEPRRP
Test: Validation qHTS for agonist of cAMP-regulated guanine nucleotide exchange factor 4 (EPAC2);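 further: exchange makes BODIPY-GDP fluorescence drop when released from Rap1B; series mostly up to about 150 µM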
Details: EPAC2 Rap1B BODIPY-GDP exchange, fluorescence; activation: active compounds read high
Procedure, shortened: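 Fluorescent exchange assay: 100 nM EPAC2 with 250 nM RAP1B-BODIPY-GDP and 50 uM GDP; compound added, 5 min at room temperature, then read (ex 480/em 540 nm) every 5 min for 30 min. Normalized to 6.5 mM cAMP agonist control.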
On the % scale 0 is the no-effect control and ±100 the full control effect.

activation, inactive:
Nc1nc2[nH]c(=O)[nH]c2c(=O)[nH]1 -4.92%
Cc1ncc([N+](=O)[O-])n1CC(C)O (stereo not drawn) -15.7%
Cc1c(C(=O)NCCc2cccnc2)cnn1-c1nccc(-c2ccccc2F)n1 -9.69%
CC(=O)C[C@H]1c2ccccc2S(=O)(=O)N1C1CCCCC1 -22.2%
COC(=O)c1ccccc1C(=O)NCc1nc(N2CCCC2)c2cccc(C)c2n1 -28.7%
CC1=C(/C=C/C(C)=C/C=C/C(C)=C/CO)C(C)(C)CCC1 -20% [middle of 4 runs]
Cc1noc(C)c1C(=O)N1CCC2(CCN(Cc3cc(C(F)(F)F)cc(C(F)(F)F)c3)CC2)CC1 -21.8%
COc1ccccc1N1CCN(CCN(C(=O)c2ccc(I)cc2)c2ccccn2)CC1 -8.14%
COc1ccccc1CCc1nc2ccccc2n1C1CCN(C(=O)c2cc(C)nn2C)CC1 -6.12%
NCCC(=O)N[C@H](Cc1cnc[nH]1)C(=O)O -6.08%
NC(Cc1cc(I)c(Oc2ccc(O)c(I)c2)c(I)c1)C(=O)O (stereo not drawn) -13.8%
C=C(C)C1COc2cc3oc(=O)ccc3cc2O1 (stereo not drawn) -2.86%
C[C@@H]1CCC(=O)N(CC[C@H](N=[N+]=[N-])c2ccccc2)CC1 -22.2%
Cc1nn(C)cc1CN1CCOc2ccc(CN3CCC(Oc4cccnc4)CC3)cc2C1 -0.756%
COc1cccc(-c2cncnc2NC2CCNCC2)c1 -14%
CCCCCc1ccc(-c2cn(Cc3ccc(C(=O)c4ccccc4)cc3)nn2)cc1 -2.48%
O=C1CCN(Cc2cccc(C(F)(F)F)c2)CCN1Cc1ccccn1 -12.3%
Cc1c(C(=O)NCC(C)(C)N2CCOCC2)cnn1-c1nccc(-c2cccs2)n1 -10.6%
[O-][N+](=Nc1ccccc1)c1ccccc1 13.2%
O=C(C[n+]1cccc2ccccc21)c1ccc(F)cc1 2.35%
COc1ccc([C@@H](C)C(=O)c2ccc(O)cc2O)cc1 -21.2%
Cc1cnnc2ccccc12 -11.4%
CO[C@H]1[C@H](NC(=O)c2ccco2)c2ccccc2C12CCN(Cc1cnc(N(C)C)s1)CC2 -21.4%
COc1ccc2c(c1)OCC(Cc1ccc(OC)c(OC)c1)C2O (stereo not drawn) -15.4% and -5.66%
CCCCCCCC(=O)OCC(O)CO (stereo not drawn) -27.5%
c1ccc(-c2nc[nH]c2-c2ccccc2)cc1 -13.2%
O=C(Nc1cccc(F)c1)N1CCC2(CC1)CCN(C(=O)c1cnccn1)CC2 6.12%
COc1ccccc1CN1CC[C@@]2(CCCN(C(=O)c3c(C)noc3C)C2)C1 -0.842%
C[N+]1(C)C2CC(OC(=O)C(CO)c3ccccc3)CC1C1OC12 (stereo not drawn) -12.5%
CC(=O)Nc1ccc(C(=O)N2CCCC(c3nc(SCc4ccccn4)ncc3C)C2)cc1 (stereo not drawn) -4.23%
CC(=O)N1CCC2(CC1)CN(C(c1ccccc1)c1ccccc1)C2 -7.21%
CC1(C)S[C@@H]2[C@H](NC(=O)[C@H](N)c3ccccc3)C(=O)N2[C@H]1C(=O)O -3.65%
c1csc(CNc2nc(-c3ccc4c(c3)OCO4)nc3ccccc23)c1 5.19%
O=C(c1cc(-c2ccccc2)on1)N1CCOc2ccc(CN3CCN(c4ccccn4)CC3)cc2C1 -0.107%
COc1cccc(Cn2c(=O)c(C)nc3cnc(Nc4cccc(OC)c4)nc32)c1 0.94%
CCCCC/C=C\C=C\[C@H](O)CCCCCCCC(=O)O -6.69%
CN1C[C@H](C(=O)N[C@]2(C)O[C@@]3(O)C4CCCN4C(=O)[C@H](Cc4ccccc4)N3C2=O)C[C@@H]2c3cccc4[nH]cc(c34)C[C@H]21 (stereo partly drawn) 2.9%
O[C@@H](CNC[C@H](O)[C@H]1CCc2cc(F)ccc2O1)[C@@H]1CCc2cc(F)ccc2O1 -18.9%
CCCCCC(=O)/C=C/C=C\CCCCCCCC(=O)O 1.31%
Oc1ccc(Cl)cc1Sc1cc(Cl)ccc1O -11.5%
O=c1n(CCCN2CCN(c3cccc(Cl)c3)CC2)nc2ccccn12 -6.91% and 4.36% and -21.7%
COC(=O)C[C@H]1c2cc(C(F)(F)F)ccc2S(=O)(=O)N1C1CCCC1 -23.3%
CC(=O)NCCCCCC(=O)O 13.4%
O=C(O)c1cc(=O)[nH]c(=O)[nH]1 -4.18%
O=c1c(-c2ccc(Cl)cc2)nc2cnc(Nc3ccccc3)nc2n1C1CC1 -7.24%
CN(Cc1ccco1)c1ncncc1-c1ccoc1 10.8%
CCC(=O)c1ccc2c(c1)N(CCCN(C)C)c1ccccc1S2 -9.81% and -16.9%
Cc1ccccc1N1CCN(CCc2nnc3n2CCCC3)CC1 -18.4%
Cc1noc(C)c1-c1cc(N(C)C)ncn1 -7.83%
Cc1nc2ccccn2c(=O)c1CCN1CCC(C(=O)c2ccc(F)cc2)CC1 -19.1% and -25.1%
CC1(C)C2(Cl)C(Cl)C(Cl)C(Cl)(C(Cl)Cl)C1(Cl)C2Cl (stereo not drawn) -16.6%
Cc1cnc(CNc2ncncc2-c2ccc(N(C)C)cc2)cn1 8.05%
O=C(Nc1ccc(Cl)cc1Cl)[C@@H]1CC=C[C@@H]2CCN(C3CCCCC3)C(=O)[C@@H]21 -19.9%
Cc1cccc(C)c1NC(=O)c1cc(S(N)(=O)=O)c(Cl)cc1O 1.01%
COCC(=O)Nc1cc(C(=O)N2CC3CC4CC(C3)CC2C4)c2c(c1)nc(-c1ccncc1)n2C 2.55%
CCNc1ncc2nc(-c3ccc(OC)cc3)c(=O)n(Cc3ccc(F)cc3)c2n1 6.11%
CC(=O)N[C@@H](CSC/C=C(\C)CC/C=C(\C)CC/C=C(\C)CCC=C(C)C)C(=O)O -69.2% and -10.9%
O=C(CCNNC(=O)c1ccncc1)NCc1ccccc1 0.755% and -13.8%
COc1ccc(C(=O)c2coc3ccc(O)cc23)cc1 11.4%
COc1cc2c(C)c3c4c(cc(OC)c(OC)c4c2cc1OC)CCN3C 7.68%
CCN1CCCC1CNC(=O)c1cnn(-c2ncc(C)c(-c3ccc(F)cc3)n2)c1C(C)C (stereo not drawn) -10.9%
CCCCC[C@H](O)/C=C/[C@H]1[C@H](O)CC(=O)[C@@H]1C/C=C\CCCC(=O)O -6.33%
Cc1cccc(CNc2ncnc3ccc(-c4ccc5c(c4)OCO5)cc23)c1 -0.507%
CC(=O)OC1CC(OC(C)=O)[C@]2(C)C(CC(OC(C)=O)[C@]3(C)C2CC[C@@]2(C)C(c4ccoc4)OC(=O)C4O[C@]432)C1(C)C (stereo partly drawn) 2.29%
N[C@@H](Cn1ccc(=O)n(Cc2ccccc2C(=O)O)c1=O)C(=O)O -0.859%
C=C1C2CC[C@]3(CCC4[C@@]5(C)CCC[C@@]4(CN(CCO)C5)[C@@H]3C2)[C@@H]1O (stereo partly drawn) -12.7%
CC(C(=O)O)C1CCC2C3CC=C4CC(O)CC[C@@]4(C)C3CC[C@]12C (stereo partly drawn) -5.25%
Cn1c(=O)c(-c2cccs2)nc2cnc(N3CCOCC3)nc21 -11.2%
C[C@H](NC(=O)CNC(=O)[C@@H](NC(=O)[C@H](Cc1ccccc1)NC(=O)CNC(=O)CNC(=O)[C@@H](N)Cc1ccccc1)[C@@H](C)O)C(=O)N[C@@H](CCCN=C(N)N)C(=O)N[C@@H](CCCCN)C(=O)N[C@@H](CO)C(=O)N[C@@H](C)C(=O)N[C@@H](CCCN=C(N)N)C(=O)N[C@H](CN)CCCCN (H-FGGFTGARKSAR-X3) 1.52%
COc1ccc(-c2nc3cnc(N4CCOCC4)nc3n(CCc3ccccc3)c2=O)cc1 -20.8%
COc1cccc(-c2nccc(NCc3cccc(C)c3)n2)c1 -40.8%
C=CCN([C@H](C(=O)OC)C(C)C)S(=O)(=O)CCNCc1ccccc1 -37.8%
COCCn1c(=O)c(-c2ccccc2)nc2cnc(Oc3cccc(Cl)c3)nc21 -7.57%
CC1=C(C(=O)OCc2cc(C)on2)N2C(=O)[C@@H](NC(=O)OCc3cc(C)on3)[C@H]2SC1 -7.69%
COc1ccc(CN2[C@@H](CC(=O)O)c3cc(F)ccc3S2(=O)=O)cc1 -13.6%
CN1[C@@H]2CC(OC(=O)[C@H](CO)c3ccccc3)C[C@H]1[C@@H]1O[C@@H]12 (stereo partly drawn) 12.4% and 1.58%
CCNc1ncc2nc(-c3ccc(Cl)cc3)c(=O)n(C3CC3)c2n1 -10.6%
CCC1CN(Cc2cccc3nccnc23)Cc2cc(OC)ccc2O1 (stereo not drawn) -6.49%
COCC(=O)N1CCC2(CC1)CN(C(=O)Nc1ccc(OC)cc1)C2 -2.81%
COc1ccc2c3c1OC1C[C@@H](O)C=C[C@@]31CCN(C)C2 (stereo partly drawn) -4.02%
O=C(c1cnccn1)N1CCC2(CCCN(c3ncccn3)C2)CC1 -3.86%
c1cn(-c2ncnc3ccc(-c4ccoc4)cc23)cn1 -14.5%
CC/C(=C/c1ccccc1OC)c1cc(-c2ccccc2)cc2oc3ccccc3c12 5.25%

Reference: PubChem BioAssay AID1645887 (National Center for Advancing Translational Sciences (NCATS), 2021)
